Measured values reported in the supplement of paper PMC12645437, “Orthogonal IMiD-Degron Pairs Induce Selective Protein Degradation in Cells” (ACS Chemical Biology, 2025).
The list shows a part of the results.

target: no compound (DMSO); assay: log2 fold change of degron read counts, EGFP-low vs EGFP+ sorted cells; higher = lower degron-EGFP level without compound (poor expression or instability); conditions: compound: DMSO control; 18 h
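Also: jurkat cells carrying a lentiviral library of mutant zinc finger degrons fused to EGFP plus mCherry, mCherry+ cells FACS sorted, degron abundance counted by next-generation sequencing.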

Sequence | log2 fold change of degron read counts
FSCEQCGAAFTQKGNLLRHIKL | -1.58
FYCDQCGAAFTQKGNLLRHIKL | -2.35
FNCNQCGATFTQKGNLLRHIKL | -0.701
FQCPVCGATFTQKGNLLRHIKL | -0.375
LLCNQCGFYCTQKGNLLRHIKL | 1.73
FICEQCGAHFTQKGNLLRHIKL | -2.55
FQCDVCGAIFTQKGNLLRHIKL | -1.4
FACEICGAEFTQKGNLLRHIKL | -2.36
FHCPICGAWFTQKGNLLRHIKL | 0.107
LQCPICGFGCTQKGNLLRHIKL | 0.855
LLCEICGFRCTQKGNLLRHIKL | 0.13
FACEICGAGFTQKGNLLRHIKL | -1.04
FECNQCGRDFTQKGNLLRHIKL | -1.03
FWCDVCGAHFTQKGNLLRHIKL | -0.66
FECEVCGALFTQKGNLLRHIKL | -2.78
FACSVCGHYFTQKGNLLRHIKL | -0.375

Sequence | log2 fold change of degron read counts
FGCEICGRGFTQKGNLLRHIKL | -0.672
FQCPICGRAFTQKGNLLRHIKL | 0.308
FSCNQCGHGFTQKGNLLRHIKL | 0.0358
FCCEVCGAGFTQKGNLLRHIKL | -1.03
FGCEICGATFTQKGNLLRHIKL | -1.04
FNCPICGHMFTQKGNLLRHIKL | 0.0712
FHCDQCGAEFTQKGNLLRHIKL | -2.14
FNCDQCGAVFTQKGNLLRHIKL | -1.56
FICSVCGHRFTQKGNLLRHIKL | -0.703
FACPICGHLFTQKGNLLRHIKL | -0.21
FACPVCGASFTQKGNLLRHIKL | -0.332
FACEICGHCFTQKGNLLRHIKL | -0.864
FWCEICGAGFTQKGNLLRHIKL | -1.02
FYCNQCGHAFTQKGNLLRHIKL | 0.392
FRCNICGAFFTQKGNLLRHIKL | 0.547
LECEICGFGCTQKGNLLRHIKL | -0.407
